Among the data in the RNAGym collection of RNA variant scans (doi:10.7554/elife.90254) are self-cleavage values, retold here.

Read counts are not given, so values of variants with three or more changes are uncertain.

To fix the notation:
B1: OR4K15 (parent)
chain: GUUAACGGUCAUAGGCCAUGGAAACUAGGAGCACCAUUUCGCUGCCAGUGAAGAAAUGAACAAAGAAAAUCUGGGCCAGGCAGGCAUCAAAAGAAAUAGUCUUGCGCUCAACCAGAAAGUCUGUAAUCAUUUUAAGGGUA

In the series the parent is B1. Kind of series: self-cleavage, relative activity (ratio to wild type); higher = more cleavage; in vitro, sequencing; the parent is a self-cleaving ribozyme.
In the case of A36G U100C U122C, the self-cleavage is 2.18.

For C34U U43A U139C, the self-cleavage stood at 1.87.

As to A33U U57G U103C, the self-cleavage stood at 0.68.

A36G A62G A89G: the self-cleavage is 0.91.

With A36G A95G U120C, the self-cleavage was 1.34.

Turning to U37C A64U C88A U127C, the self-cleavage turned out to be 0.43.

With U37G A52G A60G, the self-cleavage was 1.19.

For the variant U37G A51U A52G C71U A125G, the self-cleavage is 0.13.

On to C35U U43C U49C A117U U131C, for which the self-cleavage is 0.44.

Consider A36U G41U A54G U127A, for which the self-cleavage was determined as 2.16.

Regarding A36G A52G U120A, the self-cleavage is 2.38.

Turning to A36U A56G A89G A96G A114G, the self-cleavage worked out at 0.18.

Consider A33U U70A A125G, for which the self-cleavage was 0.68.

With U38A A51U A68G A96G, the self-cleavage was 1.58.

Turning to U37C U43A A47U A51G A66G, the self-cleavage amounted to 1.19.

Turning to C35A A96G U100C, the self-cleavage amounted to 1.89.

As for U37G A56G A118U U124C, the self-cleavage was 0.35.

As for A36U A67G U103C U130C, the self-cleavage was 0.48.

As for U37C U49G U124C, the self-cleavage is 0.41.

Consider A36U A91G A110U A126G, for which the self-cleavage was 0.84.

With U37C G48U G50U U103A, the self-cleavage was 0.84.

With A36U A51G U72C A95G, the self-cleavage was found to be 0.48.

With U37C C42U A54G A95U, the self-cleavage came to 0.74.

A36C A90G A92G U97C U100C A116G: the self-cleavage is 0.95.

For U37C U87C A90G, the self-cleavage came out at 0.25.

In the case of U37C A51U A78G A91U A140G, the self-cleavage amounted to 0.19.

Regarding U37C U127G C128U, the self-cleavage was determined as 1.68.

On to A36G A54U U57A U72C, for which the self-cleavage came out at 0.28.

Turning to A36U A94G A118G, the self-cleavage was 0.51.

As for U37C A96G U139C, the self-cleavage is 1.88.

U37C A59G U108A: the self-cleavage is 0.04.

Consider C34U U57C A89U A111G U122C G123A, for which the self-cleavage was 0.

Take U37C U38C A62G A96U A117G: the self-cleavage worked out at 2.39.

As for A36U U37C A86G A111G U120C U131C, the self-cleavage worked out at 0.

For the variant U37C A62U U72A U100C A118G, the self-cleavage was 0.21.

U37C A52U U127C U139C: the self-cleavage stood at 0.67.

Regarding C35A A54G A96U, the self-cleavage worked out at 0.98.

For the variant U37C A90G A92U, the self-cleavage came to 0.78.

Take A36U A67G C109U A110G A116G A134G: the self-cleavage worked out at 0.01.

Regarding U37C A62G U124C, the self-cleavage was 0.84.

In the case of C34U A69U U72C, the self-cleavage turned out to be 0.19.

For A36C A56G A90G, the self-cleavage amounted to 0.71.

Take A33U U39A A51G U124C A125G: the self-cleavage was found to be 1.01.

In the case of A36G U72C A96U A98G, the self-cleavage was found to be 0.19.

Turning to U37C A62G U70C A140G, the self-cleavage stood at 0.48.

For the variant A36U A52G A86G U102C, the self-cleavage was 1.91.

Consider A36C A68C A118G A135G U139A, for which the self-cleavage was found to be 0.75.

Take A36G A54G U102C A111G: the self-cleavage came out at 0.

Turning to A33U U49A U124C, the self-cleavage turned out to be 0.73.

Take C35U A59G A90G: the self-cleavage amounted to 0.46.

U37C U39C G73U G136A: the self-cleavage worked out at 0.25.

Take U37C A51G A59G A95C: the self-cleavage turned out to be 0.85.

For U37A U70C U127C, the self-cleavage was determined as 0.85.

A36G U49G U102C A111G: the self-cleavage was 0.

On to C35U A66U A140U, for which the self-cleavage is 0.6.

Take U37C U72A G93U A116G A118G U130C U139C A140G: the self-cleavage came out at 0.01.

As for A36U U43A A59G, the self-cleavage turned out to be 1.5.

Consider U37C U39A A68G U100C A114G, for which the self-cleavage was found to be 1.17.

On to C34U U43A A60G, for which the self-cleavage is 1.83.

Take U37G A64G U102C: the self-cleavage was 2.05.

For the variant U37G U87C A96G, the self-cleavage came out at 2.95.

On to U37C A54G U132G, for which the self-cleavage was determined as 0.29.

As to U37C U39C A64G A92G, the self-cleavage was determined as 0.85.

Take U37C A52G U102C: the self-cleavage came to 1.59.

Take C34G A51G U131C: the self-cleavage came to 1.11.

Consider C35G U38A A56G A82U U102A A118G, for which the self-cleavage came out at 0.18.

With U37C A126G U131C, the self-cleavage amounted to 1.29.

On to C35A A51U A118U, for which the self-cleavage came to 0.59.

As for A36U U70C C105U, the self-cleavage is 0.12.

For the variant U37C A78G A92U U108C, the self-cleavage was 0.04.

On to U37C G48A U87C, for which the self-cleavage came to 0.7.

Regarding U37C A56G A68G A86G, the self-cleavage came out at 1.04.

A36U U39A A118G: the self-cleavage worked out at 2.15.

Turning to A36G A78G A92G, the self-cleavage came out at 0.23.

Consider A36G A54G A78C, for which the self-cleavage worked out at 0.32.

On to U37G A60U A111U U122A, for which the self-cleavage is 0.01.

In the case of A33U U72C A95G U127C, the self-cleavage is 0.22.

As to U37C A54G U57A A129U, the self-cleavage was found to be 1.64.

Take A36U A90G A135G: the self-cleavage was 1.55.

Take U37C A59G A62G A66G A125G: the self-cleavage amounted to 0.48.

With U37C C40U A91G, the self-cleavage turned out to be 0.74.

With C34U A47G A94G, the self-cleavage was 0.74.

As for U37C A62G A78G, the self-cleavage was found to be 0.08.
